Laboratory results: patent publication US20220098304A1 (JIANGSU HENGRUI MEDICINE, published 2022)

Columns and labels:
[1] = biological target: T1, Human PD-1-His protein (Cat. #10377H08H, Sino Biological) (human, UniProt Q15116 partial chain); assay: SPR (Biacore), antibody captured on Protein A chip, PD-1 in flow
T1 construct: Bought protein; also called hPD-1-His; hu PD-1-his; not shown: His tag of the bought protein

[2] = biological target: T1, Human PD-1-His protein (Cat. …); assay: SPR (Biacore T200), antibody captured on Protein A chip, antigen in flow, 1:1 Langmuir
[3] = biological target: T2, Cyno PD-1 antigen (purchased from Sino Biological) (cynomolgus monkey (Cyno; simian), UniProt B0LAJ3 25-170); assay: as above
T2 construct: Bought protein, construct not described; also called simian PD-1; not shown: Tag or carrier of the Sino Biological product (probably a His tag)

[4] = biological target: T1, Human PD-1-His protein (Cat. …); assay: ELISA, PD-1-His coated, HRP anti-human IgG detection

T1 sequence (Q15116 25-167 limits assumed): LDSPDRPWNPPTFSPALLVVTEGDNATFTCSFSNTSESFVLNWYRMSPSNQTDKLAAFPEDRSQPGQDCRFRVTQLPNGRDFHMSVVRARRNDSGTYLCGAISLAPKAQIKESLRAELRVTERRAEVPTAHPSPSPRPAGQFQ
Sequence of UniProt B0LAJ3 (B0LAJ3 entry or part of it limits assumed): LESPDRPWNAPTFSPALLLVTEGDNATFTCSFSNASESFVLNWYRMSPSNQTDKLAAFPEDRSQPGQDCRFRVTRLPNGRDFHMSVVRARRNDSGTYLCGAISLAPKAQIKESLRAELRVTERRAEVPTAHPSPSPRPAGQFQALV

Row | Kd [1] [nM] | koff [1] [s⁻¹] | kon [1] [M⁻¹ s⁻¹] | Kd [2] [nM] | koff [2] [s⁻¹] | kon [2] [M⁻¹ s⁻¹] | Kd [3] [nM] | koff [3] [s⁻¹] | kon [3] [M⁻¹ s⁻¹] | EC50 [4] [µg/mL] | OD value MAX [4] [OD] | Binder
1 | 1.06 | 0.000143 | 135000 |  |  |  |  |  |  |  |  | Hu33-2.IgG4AA (antibody, Full-length IgG4-AA, kappa) heavy: EVQLVESGGGLVQPGGSLRLSCAASGFTFSSYAMSWVRQAPGKGLEWVATISGGGVDTYYQDNVQGRFTISRDNAKNSLYLQMNSLRAEDTAVYYCASPYGHGYFDVWGQGTTVTVSSASTKGPSVFPLAPCSRSTSESTAALGCLVKDYFPEPVTVSWNSGALTSGVHTFPAVLQSSGLYSLSSVVTVPSSSLGTKTYTCNVDHKPSNTKVDKRV[human IgG4 Fc with S228P F234A L235A (EU numbers) left out here] light: DIQMTQSPSSLSASVGDRVTITCRASQDINNFLNWYQQKPGKAPKLLIYYTSSLHSGVPSRFSGSGSGTDFTLTISSLQPEDFATYYCQQGNTLPWTFGGGTKVEIKRTVAAPSVFIFPPSDEQLKSGTASVVCLLNNFYPREAKVQWKVDNALQSGNSQESVTEQDSKDSTYSLSSTLTLSKADYEKHKVYACEVTHQGLSSPVTKSFNRGEC
2 | 1.09 | 0.000136 | 125000 |  |  |  |  |  |  |  |  | Hu33-3.IgG4AA (antibody, Full-length IgG4-AA, kappa) heavy: KVQLVESGGGLVQPGGSLRLSCAASGFTFSSYAMSWVRQAPGKGLEWVATISGGGVDTYYQDNVQGRFTISRDNAKNSLYLQMNSLRAEDTAVYYCASPYGHGYFDVWGQGTTVTVSSASTKGPSVFPLAPCSRSTSESTAALGCLVKDYFPEPVTVSWNSGALTSGVHTFPAVLQSSGLYSLSSVVTVPSSSLGTKTYTCNVDHKPSNTKVDKRV[human IgG4 Fc with S228P F234A L235A (EU numbers) left out here] light: DIQMTQSPSSLSASVGDRVTITCRASQDINNFLNWYQQKPGKAPKLLIYYTSSLHSGVPSRFSGSGSGTDFTLTISSLQPEDFATYYCQQGNTLPWTFGGGTKVEIKRTVAAPSVFIFPPSDEQLKSGTASVVCLLNNFYPREAKVQWKVDNALQSGNSQESVTEQDSKDSTYSLSSTLTLSKADYEKHKVYACEVTHQGLSSPVTKSFNRGEC

Second part, the binder before the results:

Row | Binder | Kd [1] [nM] | koff [1] [s⁻¹] | kon [1] [M⁻¹ s⁻¹] | Kd [2] [nM] | koff [2] [s⁻¹] | kon [2] [M⁻¹ s⁻¹] | Kd [3] [nM] | koff [3] [s⁻¹] | kon [3] [M⁻¹ s⁻¹] | EC50 [4] [µg/mL] | OD value MAX [4] [OD]
3 | Hu33-5.IgG4AA (antibody, Full-length IgG4-AA, kappa) heavy: EVQLVESGGGLVQPGGSLRLSCAASGFTFSSYAMSWVRQAPGKGLEWVATISGGGVDTYYQDNVQGRFTISRDNAKNSLYLQMNSLRAEDTAVYYCASPYGHGYFDVWGQGTTVTVSSASTKGPSVFPLAPCSRSTSESTAALGCLVKDYFPEPVTVSWNSGALTSGVHTFPAVLQSSGLYSLSSVVTVPSSSLGTKTYTCNVDHKPSNTKVDKRV[human IgG4 Fc with S228P F234A L235A (EU numbers) left out here] light: DIQMTQSPSSLSASVGDRVTITCRASQDINNFLNWYQQKPGKAPKLLIYYTSSLHSGVPSRFSGSGSGTDYTLTISSLQPEDFATYYCQQGNTLPWTFGGGTKVEIKRTVAAPSVFIFPPSDEQLKSGTASVVCLLNNFYPREAKVQWKVDNALQSGNSQESVTEQDSKDSTYSLSSTLTLSKADYEKHKVYACEVTHQGLSSPVTKSFNRGEC | 0.926 | 0.000135 | 146000 |  |  |  |  |  |  |  | 
4 | Hu33-6.IgG4AA (antibody, Full-length IgG4-AA, kappa) heavy: KVQLVESGGGLVQPGGSLRLSCAASGFTFSSYAMSWVRQAPGKGLEWVATISGGGVDTYYQDNVQGRFTISRDNAKNSLYLQMNSLRAEDTAVYYCASPYGHGYFDVWGQGTTVTVSSASTKGPSVFPLAPCSRSTSESTAALGCLVKDYFPEPVTVSWNSGALTSGVHTFPAVLQSSGLYSLSSVVTVPSSSLGTKTYTCNVDHKPSNTKVDKRV[human IgG4 Fc with S228P F234A L235A (EU numbers) left out here] light: DIQMTQSPSSLSASVGDRVTITCRASQDINNFLNWYQQKPGKAPKLLIYYTSSLHSGVPSRFSGSGSGTDYTLTISSLQPEDFATYYCQQGNTLPWTFGGGTKVEIKRTVAAPSVFIFPPSDEQLKSGTASVVCLLNNFYPREAKVQWKVDNALQSGNSQESVTEQDSKDSTYSLSSTLTLSKADYEKHKVYACEVTHQGLSSPVTKSFNRGEC | 1.08 | 0.00014 | 130000 | 0.918 | 0.000114 | 124000 | 0.96 | 0.000241 | 251000 | 0.206 | 1.71
